Measurements as given in PubChem BioAssay AID485344 (National Center for Advancing Translational Sciences (NCATS), 2010).
Hit rate of the full screen: of about 340,000 compounds, about 6,900 (2%) were called active. No stated cut-off is given here; in the data, active means inhibition above about 30%; inactive means below that, where a call was filed. This is a selection; strong and weak results do not stand in their true shares. Entries without a call were filed so in the source.

Molecular target: D(2) dopamine receptor (Homo sapiens) (UniProt P14416)
Chain of UniProt P14416 (P14416 whole entry, looked up): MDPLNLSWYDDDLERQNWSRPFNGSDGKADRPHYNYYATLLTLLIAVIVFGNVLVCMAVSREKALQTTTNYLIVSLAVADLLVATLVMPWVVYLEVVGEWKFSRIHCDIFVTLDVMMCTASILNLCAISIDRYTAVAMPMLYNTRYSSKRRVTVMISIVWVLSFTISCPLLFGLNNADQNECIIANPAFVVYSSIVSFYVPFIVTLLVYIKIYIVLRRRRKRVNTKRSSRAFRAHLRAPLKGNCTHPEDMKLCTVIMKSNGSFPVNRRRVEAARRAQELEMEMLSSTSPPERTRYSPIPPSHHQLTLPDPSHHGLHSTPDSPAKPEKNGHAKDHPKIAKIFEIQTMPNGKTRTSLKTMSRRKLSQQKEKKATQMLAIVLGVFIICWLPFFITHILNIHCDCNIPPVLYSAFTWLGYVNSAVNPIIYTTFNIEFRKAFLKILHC
Assay: HTS Assay for Allosteric Antagonists of the Human D2 Dopamine Receptor: Primary Screen for Antagonists; further: 0% is about no effect
Details: HEK293 TREx D2 cells, calcium flux, dopamine EC80; at 10 µM; stronger effect = higher value
Outline: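 Tetracycline-induced HEK293 TREx cells expressing D2 receptor forced-coupled to calcium signalling, loaded with no-wash calcium dye. Compounds added and calcium flux read 180 s, then dopamine added at EC80 and read a further 180 s.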

Structure (SMILES)	inhibition
CC(=O)Nc1ccc(CN2CCN(c3cccc(C(F)(F)F)c3)CC2)cc1	active: 42.7%
S=C(NCCc1ccccc1)N1CCc2ccccc2C1	active: 40.8%
CCOC(=O)c1cnc2cc(F)c(F)cc2c1Nc1ccccc1O	13.4%
COc1cc(C(CC(=O)Nc2cccc(C(C)=O)c2)N2Cc3ccccc3C2=O)cc(OC)c1OC (stereo not given)	3.32%
COc1cccc(C2C=C(c3ccccc3)Nc3c(C(=O)Nc4ccccc4)cnn32)c1OC (stereo not given)	12.3%
CC(=O)Nc1nonc1-c1nnc(SCC(=O)Nc2cc(Cl)ccc2C)n1C	-11.2%
Cc1c(O)c(CN2CCCCC2)cc2c1oc(=O)c1ccccc12	active: 65.9%
CCOC(=O)c1c(NC(=O)/C=C/c2ccc(C)cc2)sc(C(C)=O)c1C	2.79%
CC(=O)C1=C(c2ccc(Cl)c(Cl)c2)N(C(C)=O)n2c(nnc2-c2ccccc2)S1	2.95%
O=C(COCc1cc(-c2ccc(F)cc2)on1)Nc1cc(Cl)ccc1O	5.77%
COc1ccc(CCNC(=O)CCCn2c(=O)c3ccccc3n(Cc3ccccc3C#N)c2=O)cc1OC	-4.95%
COc1cccc2cc(-c3nc(Nc4cccc(C)c4C)sc3C)c(=O)oc12	-4.68%
Nc1nonc1C(=O)NCCNCc1ccccc1F	7.9%
CCOC(=O)c1ccc(N2C(=O)c3n[nH]c(-c4cccs4)c3C2c2ccc(CC)cc2)cc1 (stereo not given)	15%
O=S(=O)(Nc1ccc(F)c(Cl)c1)c1ccc(Br)s1	16.7%
Cc1cccc(N2CCN(C(=O)Cn3ncc4c5ccccc5n(C)c4c3=O)CC2C)c1 (stereo not given)	-2.4%
O=c1c(S(=O)(=O)c2ccccc2)cn(Cc2ccc(F)cc2)c2cc(N3CCOCC3)c(F)cc12	-1.99%
COc1ccc(C(=O)c2sc3nc(-c4ccc(C)cc4)cc(C(F)(F)F)c3c2N)cc1	-22.5%
COc1cc(OC)cc(C(=O)Nc2ccc(-c3nc4cc(C(C)C)ccc4o3)cc2)c1	4.17%
Cc1ccc(C)c(N2CCN(S(=O)(=O)c3ccc(-c4coc(C)n4)cc3)CC2)c1	8.19%
CCOC(=O)C(CC)n1nc(C)c2c(C)n(-c3ccc(C)cc3)nc2c1=O (stereo not given)	5.69%
CCCCN(CCCNC(=O)c1cc(Nc2ccc(OC)cc2)nc2ccccc12)Cc1ccccc1	6.5%
Cc1ccc(NC(=O)c2ccc(Cl)cc2Cl)c(C(=O)c2ccccc2)c1	-5.7%
Cc1ccc(Cn2c(C)c(CNCC(C)c3ccccc3)c(C(=O)O)c2C)cc1 (stereo not given)	0.268%

Structure (SMILES)	inhibition
CCOc1ccc(-c2cc3c(=O)n(Cc4nc(-c5ccccc5OCC)oc4C)ccn3n2)cc1Cl	14.1%
O=S(=O)(NCc1ccc(Cl)cc1)c1ccc2[nH]c3c(c2c1)CCCC3	6.15%
O=C(NCCSc1c[nH]c2ccccc12)C1CC1	active: 36.4%
CCC(CC)C(=O)Nc1ccccc1SCc1cc(=O)c2cccc(C)c2[nH]1	-6.65%
COCCCNC(=O)C1CCC(Cn2c(=O)c3sccc3n(C)c2=O)CC1 (stereo not given)	2.3%
CCOC(=O)C1CCN(c2nc3c(S(=O)(=O)c4ccccc4)nnn3c3ccc(Cl)cc23)CC1	-0.823%
CCOC(=O)c1ccc2nc(C)cc(Nc3ccc(OC(C)C)cc3)c2c1	3.89%
CCCCc1ccc(-n2nc3cc(Cl)c(NC(=O)c4ccc(OC)cc4)cc3n2)cc1	13.5%
Cc1ccc(-n2cnc3cc(C(=O)NCc4ccc(F)cc4)ccc32)c(C)c1	16.5%
CC(Sc1nc2c(c(=O)[nH]1)CCCC2)C(=O)Nc1cc(C(F)(F)F)ccc1Cl (stereo not given)	-19.2%
Cc1cccc(C(=O)NCCc2nc3ccccc3n2Cc2ccc(Cl)cc2)c1	-6.29%
Cc1ccc(OC(C)C(=O)N2CCN(CCc3ccncc3)CC2)cc1C (stereo not given)	15.6%
CCOC(=O)c1cccc(NS(=O)(=O)c2ccc3[nH]c4c(c3c2)CCCC4)c1	-6.41%
O=c1c2oc3ccccc3c2n(Cc2ccc(F)cc2)c(=O)n1Cc1ccco1	4.63%
CCCCn1c(=NC(=O)c2c(-c3c(F)cccc3Cl)noc2C)c(C(=O)OCC)cc2c(=O)n3ccccc3nc21	-7.79%
Cc1ccc(-c2noc(-c3ccc(NCc4cccnc4)c([N+](=O)[O-])c3)n2)cc1	-4.51%
O=C(NCc1cccc(F)c1)c1ccc(CN2CC(=O)N3CCCCC3C2=O)cc1 (stereo not given)	-4.67%
O=c1c(=O)n(-c2ccccc2)ccn1Cc1c(F)cccc1Cl	19.9%
COc1cc(CNCCSc2nnnn2C)ccc1OCc1ccc(C)cc1	5.37%
CCSc1ncc(Cl)c(C(=O)N(Cc2ccccc2)c2ccc(OC)cc2)n1	-1.26%
CCOc1cccc(NC(=O)c2sc3nc(-c4ccc(F)cc4)ccc3c2N)c1	-0.779%
O=C(COCc1cc(-c2cccs2)on1)N1CCN(c2ccc(F)cc2)CC1	11.6%
O=C(c1ccccc1)N1CCCC(c2nc3c(nnn3Cc3ccc(F)cc3F)c(=O)[nH]2)C1 (stereo not given)	1.62%
Cc1nc2cccnc2n1C1CCN(C(=O)Nc2ccccc2)CC1	4.1%

Structure (SMILES)	inhibition
Cc1cc(C)cc(N2CC(c3nnc(NC(=O)c4ccco4)s3)CC2=O)c1 (stereo not given)	5.99%
COc1cc(C(=O)Nc2ccc(-n3c(C)nc4ccccc4c3=O)cc2)cc(OC)c1OC	11.2%
Cc1ccc(SCC(=O)OCC(=O)N(C)CC(=O)Nc2ccc(F)cc2)cc1C	active: 38.3%
O=C(NC1CCN(Cc2ccc3ccccc3c2)CC1)c1ccccc1	active: 50.9%
COc1ccc(N2CCN(C(=O)CCS(=O)(=O)c3cc(Br)cc4c3N(C(=O)C3CC3)CC4)CC2)cc1	-4.3%
COc1ccc(NC(=O)Nc2nnc(N3CCCCCC3)s2)c(OC)c1	20.1%
COc1ccc(NC(=O)CN2C(=O)COc3ccc(S(=O)(=O)N4CCOCC4)cc32)cc1Cl	11.6%
O=C(Nc1ccc(NC(=O)c2cccs2)cc1)c1ccc2c(c1)OCCO2	active: 34.2%
CCOC(=O)CNC(=O)c1cn(CC(C)C)c(=O)c2cc(OC)c(OC)cc12	active: 31.2%
CCOc1ccc(N(CC)S(=O)(=O)N2CCCC(C(=O)NCc3ccc(SC)cc3)C2)cc1 (stereo not given)	-13.8%
COc1cccc(CNC(=O)NCc2noc3ccc(C)cc23)c1	-7.05%
COc1ccc(NC(=O)c2cc(C3CC3)nc3c2c(C)nn3-c2ccc(C)cc2)cc1OC	-0.27%
CN(C)c1ccc(CNC(=O)C2CCN(S(=O)(=O)c3cn(C)cn3)CC2)cc1	-1.68%
COc1ccccc1CNC(=O)c1oc2c(c1C)-c1nn(Cc3ccc(Cl)cc3)cc1CC2	18.5%
Cc1ccc(C)c(CN2C(=O)c3ccccc3S(=O)c3ccc(C(=O)NCCc4ccc(Cl)cc4)cc32)c1 (stereo not given)	18.1%
COc1ccc(NC(=O)c2sc3nc(-c4cc5cccc(OC)c5oc4=O)[nH]c(=O)c3c2C)cc1	-15.9%
Cc1c(NS(C)(=O)=O)cccc1-c1nc2ccccc2s1	12.4%
COc1ccccc1-c1cc(C(F)(F)F)nc(S(=O)(=O)CCCC(=O)Nc2ccc(F)c(Cl)c2)n1	2.9%
COc1ccc(C(=O)N2CCC(c3c[nH]c4ccccc34)(c3c[nH]c4ccccc34)CC2)cc1	5.86%
COc1ccc(C(=O)NCCSc2c(C)[nH]c3ccccc23)cc1	4.99%
CCCCN(CC)CCCNC(=S)Nc1ccc2nc(N3CCN(C)CC3)cc(C)c2c1	active: 39.6%
COCCn1ccc2c(OCC(=O)NCc3ccc(F)cc3)cccc2c1=O	3.77%
Cc1ccc(NC(=O)Nc2nnc(SCC(=O)N3CCC(C)CC3)s2)cc1	27.2%
O=c1c2cc3c(nc2ncn1Cc1ccccc1F)CCCC3	0.445%

Structure (SMILES)	inhibition
CCOC(=O)c1cnc2c(ccc3ccccc32)c1Nc1ccc(OC)c(OC)c1	7.18%
Cc1cccc(C2C=C(c3ccc(F)cc3)Nc3nc4ccccc4n32)c1 (stereo not given)	3.77%
CCOc1ccc(NS(=O)(=O)c2cc(NC(=O)CCS(=O)(=O)c3ccc(C)cc3)ccc2OC)cc1	active: 32.9%
CCOc1ccc(Cn2c(CNS(=O)(=O)c3ccc([N+](=O)[O-])cc3)nc3cccnc32)cc1	6.1%
CCN1CCN(c2cc(C)c3cc(NC(=O)/C=C/c4cccc(Cl)c4)ccc3n2)CC1	-0.818%
Cc1ccc(NC(=O)Cn2cc(S(=O)(=O)N3CCCC3)c(S(=O)(=O)N3CCCC3)c2)cc1C	5.88%
CCOc1ccc(NC(=O)c2ccc(-c3cccc(Cl)c3C)o2)cc1	1.11%
O=C(O)/C(=C/c1ccco1)NC(=O)c1ccccc1	active: 33.7%
COc1ccc(-n2cc(C(=O)NC(C)c3ccccc3)c3ccccc3c2=O)cc1 (stereo not given)	-11.1%
O=C(NC1CCCC1)c1ccc(CSc2nc3ccncc3n2Cc2ccc(F)cc2)cc1	-4.35%
CCOc1ccccc1CN(CCc1ccc2c(c1)OCO2)Cc1cccc(OC)c1OC	-6.4%
CN(C)c1ccc(NC(=O)CSC2=Nc3ccccc3C3=NC(CC(=O)NCc4ccccc4)C(=O)N23)cc1 (stereo not given)	-16.3%
CCOC(=O)c1c(C)[nH]c(CCC(=O)NCc2ccccc2C)c1C	-6.16%
CCN1CCC(N(Cc2ccc3c(c2)OCO3)C(=O)Nc2ccccc2OC)CC1	1.28%
COc1cccc(C2CC(=O)N3CN(C4CCCCC4)CSC3=C2C#N)c1 (stereo not given)	11%
COc1cc(NC(=O)C(CCS(C)(=O)=O)N2Cc3ccccc3C2=O)cc(OC)c1OC (stereo not given)	2.79%
CC1CN(C(=O)N2CCC(C(=O)NC3CCCCCC3)CC2)c2ccccc2O1 (stereo not given)	-13.4%
COc1cccc(NC(=O)c2cc3c(=O)n(Cc4cccnc4)ccc3nc2C)c1	6%
Cc1n[nH]c(=S)n1/N=C/c1ccc(OCc2ccc(Cl)cc2Cl)cc1	active: 31.3%
Cc1ccc(-c2nc(S(=O)(=O)c3ccc(C)cc3)c(SCC(=O)NC3CCCCC3)o2)cc1	6.29%
COc1ccccc1CNC(=O)CCC1N=C2c3ccccc3N=C(SCC(=O)NCCc3ccc(OC)c(OC)c3)N2C1=O (stereo not given)	12.3%
COc1cc(NS(=O)(=O)c2ccc3oc(=O)c4ncn(C)c4c3c2)cc(OC)c1	-2.24%
CCc1ccc(-c2cc(C)no2)cc1S(=O)(=O)Nc1ccc(Cl)cc1	-2.6%
